Survival data for 88 compounds are collected here from PubChem BioAssay AID463173 (ICCB-Longwood Screening Facility, Harvard Medical School, 2010).

SMILES strings stand for the structures. Out of some 52,000 compounds screened, about 4,300 (8.3%) were called active. Cut-off read from the data, not from the text of the source: active = survival mostly below about 52% (no sharp cut-off); inactive = mostly above about 56%. The list shows a part of the results.

For the test, the system named is DeltatarO mutant. Briefly: growth inhibition of S. aureus wild type versus tarO mutant, primary screen, teichoic acid synthesis inhibitors, RN4220, OD600 (AID 463173). Conditions: OD600, 18 h, hits give low values, screened at 18.75 µg/mL (by protocol).
As to `CCCCCCC(=O)Nc1cc2nc3c(nc2cc1C)c(=O)n(C)c(=O)n3C`, the survival is inactive: 159%.

Take `Cc1ccc(C)c(NC(=O)CSc2nnc(NC(=O)Nc3ccccc3)s2)c1`: the survival was inactive: 87%.

Regarding `O=C(CSc1nc(-c2ccco2)nc2cc(=O)[nH]n12)Nc1ccc(F)cc1`, the survival was inactive: 70%.

As to `COc1ccc(C2CC(=O)Nc3cc4c(cc32)OCO4)c(OC)c1` (stereo not drawn), the survival was inactive: 80%.

With `CCN1CCN(Cc2nc3cc(NC(=O)c4cccc([N+](=O)[O-])c4)ccc3n2CC)CC1`, the survival is inactive: 105%.

With `O=C(C1=C(O)C(=O)N(Cc2ccccc2)C1c1ccco1)c1ccco1` (stereo not drawn), the survival is inactive: 58%.

`CC(=O)Nc1cccc(NC(=O)CSc2cn(CC(=O)N3CCCC3)c3ccccc23)c1`: the survival is inactive: 58%.

For the compound `Cc1ccc(CCNC(=O)c2oc(=O)c3ccccc3c2-c2ccc(C)cc2)cc1`, the survival was active: 28%.

With `CC1CCN(S(=O)(=O)c2ccc3c(ccc(=O)n3CC(=O)NCc3ccccc3)c2)CC1`, the survival was inactive: 49%.

For the compound `CCCS(=O)(=O)c1nc(S(=O)(=O)c2ccc(C)cc2)c(NCC(C)C)s1`, the survival is inactive: 73%.

As for `CCOC(=O)c1c(-c2ccc(Br)cc2)csc1NC(=O)c1ccc(C(C)(C)C)cc1`, the survival was inactive: 52%.

Regarding `COc1ccc(CNC(=O)C2CCCN(C(=O)c3cnn(-c4ccc(F)cc4)c3-n3cccc3)C2)cc1` (stereo not drawn), the survival was inactive: 86%.

Consider `Cc1ccc(CNC(=O)c2cc(=O)c3cc(C)c(C)cc3o2)cc1`, for which the survival is inactive: 77%.

Consider `CCOc1ccc(CC(=O)NCCc2sc(-c3cccc(F)c3)nc2C)cc1`, for which the survival is inactive: 85%.

Take `O=C(NCCS(=O)(=O)N1CCN(c2ccc(F)cc2)CC1)c1ccccc1Br`: the survival is inactive: 98%.

`Cc1nc2c(-c3ccccc3)c(C)[nH]n2c(=O)c1Cc1ccc(Br)cc1`: the survival is active: 7%.

For `COc1ccc(NC(=O)c2cc(=O)c3cc(C)cc(C)c3o2)cc1`, the survival was inactive: 66%.

With `CCC(=O)Nc1ccc(C)cc1-c1nc2ccccc2n(CC(=O)c2ccc(C)cc2)c1=O`, the survival was inactive: 68%.

With `CC(C)(C)OC(=O)N1CCC(c2c(C(=O)NCc3ccco3)cnn2-c2ccc(F)cc2F)CC1`, the survival is inactive: 83%.

With `Cc1noc2ncnc(N3CCCC(C(=O)Nc4cc(F)ccc4F)C3)c12` (stereo not drawn), the survival was inactive: 74%.

As for `CCCCNC(=O)Cn1c(=O)cc(C)c2c(C)nn(-c3cccc(Cl)c3C)c21`, the survival was inactive: 74%.

Turning to `CCc1ccc(-n2c(=O)c3c(C)c(C(=O)N(C)C)sc3n(CC(=O)Nc3cc(Cl)ccc3C)c2=O)cc1`, the survival is inactive: 131%.

Consider `CCOC(=O)c1c(C)c(C(=O)NCc2ccc(Cl)cc2)c(C)n1C`, for which the survival is inactive: 79%.

As for `COc1ccccc1NC(=O)C1=C(C)Nc2nc(-c3ccco3)nn2C1c1cccc(C)c1` (stereo not drawn), the survival is inactive: 70%.

For the compound `COc1ccccc1CNS(=O)(=O)c1ccc2c(c1)CC(C)N2C(=O)C1CCC1` (stereo not drawn), the survival is inactive: 104%.

As to `COc1ccc(N2CCN(C(=O)C(C)n3c(=O)cc(C(F)(F)F)c4c(C)nn(C)c43)CC2)cc1` (stereo not drawn), the survival was inactive: 97%.

`COc1ccc(Cl)cc1NC(=O)NCCc1c(C)nn(C)c1C`: the survival was active: -1%.

With `Cc1n(O)c2c3c(c4c(c2[n+]1[O-])n(O)c(C)[n+]4[O-])[n+]([O-])c(C)n3O`, the survival is inactive: 101%.

For the compound `CCc1cccc(C)c1NC(=O)c1ccc2c(c1)CCN2S(=O)(=O)CC`, the survival is inactive: 79%.

Turning to `CC(=O)Nc1ccc(NC(=O)c2cc(-c3cccs3)on2)cc1`, the survival was inactive: 78%.

As to `O=C(CSC1=Nc2ccccc2N=C(c2ccc(F)cc2)C1)Nc1ccc(Cl)cc1`, the survival is inactive: 88%.

For `Cc1ccc(Sc2c(C)nn(C(=O)c3ccc(Br)cc3)c2C)cc1`, the survival is active: 16%.

Turning to `COc1ccc(Nc2ncnc3onc(C)c23)c(OC)c1`, the survival is inactive: 78%.

As to `COc1ccc(S(=O)(=O)NCCc2sc3nc(-c4ccc(C)cc4)nn3c2C)cc1F`, the survival was inactive: 72%.

As for `O=C(CSc1nc2ccccc2nc1Cc1ccccc1)Nc1ccccc1C(F)(F)F`, the survival was inactive: 91%.

As to `CCOc1ccc(-n2ccnc2SCC(=O)Nc2ccc3c(c2)OCO3)cc1`, the survival was inactive: 81%.

For the compound `CCOc1ccc(CNC(=O)c2cnc3sc(N(CC)CC)nn3c2=O)cc1`, the survival was inactive: 83%.

Regarding `O=C(NCCS(=O)(=O)N1CCN(c2ccccc2F)CC1)C1CC(=O)N(c2ccccc2)C1` (stereo not drawn), the survival is inactive: 90%.

Take `COc1cccc(NC(=O)c2c(N3CCCC3=O)c3cc(C)ccc3n2C)c1`: the survival was inactive: 84%.

Turning to `CN1CCCc2cc(CN)ccc21`, the survival is inactive: 86%.

For `Cc1ccc(NC(=O)C2CCCN2S(=O)(=O)c2ccc3c(c2)C(C)(C)C(=O)N3C)cc1` (stereo not drawn), the survival is inactive: 51%.

With `CCOc1ccc(NC(=O)c2cc(C)nc3c2c(C)nn3-c2cccc(F)c2)cc1`, the survival was inactive: 89%.

In the case of `Cn1cnc(S(=O)(=O)N2CCCC(C(=O)NCc3ccccc3)C2)c1` (stereo not drawn), the survival is inactive: 101%.

For `Cc1cccc(N2CCN(C(=O)Cn3ncc4c([nH]c5ccccc54)c3=O)CC2C)c1` (stereo not drawn), the survival was inactive: 93%.

With `COc1ccc(-c2cc(C)no2)cc1S(=O)(=O)NC1CCC(C)CC1` (stereo not drawn), the survival is inactive: 94%.

As to `CC1(C(=O)NC2CCCCC2)Cc2ccccc2C(=O)N1Cc1ccc(F)cc1` (stereo not drawn), the survival is inactive: 120%.

Regarding `Cc1ccc(S(=O)(=O)c2nc(-c3ccco3)oc2SCc2ccc(F)cc2)cc1`, the survival was inactive: 66%.

As for `COc1ccc(C(=O)Nc2c(C(=O)c3ccc(F)cc3)oc3ccccc23)cc1`, the survival was inactive: 103%.

As to `CCc1cccc(C)c1NC(=O)C1CCN(S(=O)(=O)c2cccc3nonc23)CC1`, the survival was inactive: 103%.

On to `O=C1CC(c2ccc(Cl)cc2)c2cc3c(cc2N1)OCCO3` (stereo not drawn), for which the survival is inactive: 50%.

As to `CC(=O)Nc1nnc(CC(C)(C)C)s1`, the survival is inactive: 99%.

Regarding `COc1ccc(-c2nc3c(c(SCC(=O)Nc4ccccc4OC)n2)Cc2cccc(C)c2O3)cc1`, the survival was inactive: 89%.

In the case of `CCCCCn1c(=O)[nH]c2cc(C(=O)N3CCN(c4cccc(OC)c4)CC3)ccc2c1=O`, the survival is active: 55%.

On to `CCCSc1ncc(Cl)c(C(=O)Nc2scc(-c3ccc(C)cc3)c2C(=O)OCC)n1`, for which the survival was inactive: 62%.

`CCOCCCNC(=O)c1cc(=O)[nH]c2ccc(S(=O)(=O)N3CCCC3)cc12`: the survival was inactive: 64%.

Consider `CCOc1ccc(CNC(=O)c2cccn2-c2nnc(N3CCCCC3)s2)cc1OC`, for which the survival was inactive: 92%.

Consider `CCCCC(=O)Nc1c(C(=O)N2CCN(c3ccccc3)CC2)oc2ccccc12`, for which the survival was inactive: 80%.

As for `O=C(Nc1ccc(C(=O)OCc2cc(=O)n3nc(C4CC4)sc3n2)cc1)c1cccc(Cl)c1`, the survival was inactive: 76%.

`CCc1ccccc1NC(=O)C(CC)Oc1ccccc1-c1nnc(-c2ccccc2)o1` (stereo not drawn): the survival is active: 32%.

As for `CCOc1ccc(CCNC(=O)c2cccc(-n3c(C)nc4cccnc43)c2C)cc1`, the survival is inactive: 79%.

Turning to `CCOC(=O)CCCN1C(=O)CCn2nc(-c3cn(C)c4ccccc34)cc21`, the survival is inactive: 69%.

Turning to `C=CCNc1nc(NCc2ccco2)nc(OCC)n1`, the survival was inactive: 86%.

On to `CCCCN(Cc1ccccc1)S(=O)(=O)c1cc(Br)cc2c1N(C(C)=O)CC2`, for which the survival is inactive: 63%.

As to `COc1ccc(S(=O)(=O)N(Cc2cc3cc4c(cc3n3nnnc23)OCO4)C2CCCCC2)cc1`, the survival is inactive: 76%.

For `CC(C)CCNC(=O)c1c2c(nc3ccccc13)C(=O)N(C1CCCCC1)C2`, the survival was inactive: 101%.

Turning to `CC(=O)N1CCOc2cc(S(=O)(=O)Nc3c(C)cccc3C(C)C)c(Cl)cc21`, the survival is inactive: 72%.

In the case of `O=C(Nc1ccccc1F)C1CCN(S(=O)(=O)c2ccc3c(c2)CCCN3C(=O)C2CCC2)CC1`, the survival is inactive: 80%.

For `Cc1ccc(-c2nc(CS(=O)CC(=O)N3CCN(c4ccc(F)cc4)CC3)c(C)o2)cc1` (stereo not drawn), the survival was inactive: 57%.

Regarding `CCC(C)NC(=O)Cc1ccc(NC(=O)N2CCCCc3ccccc32)cc1` (stereo not drawn), the survival was inactive: 93%.

Turning to `CC(C)Oc1ccc(CNC(=O)C2CCCCN2S(=O)(=O)c2ccc(F)cc2)cc1` (stereo not drawn), the survival was inactive: 80%.

For `CC(=O)Nc1nc2ccc3ccccc3c2s1`, the survival is inactive: 89%.

For the compound `Cc1cc(C)cc(OCc2cc(=O)n3c4c(sc3n2)CCCC4)c1`, the survival is inactive: 91%.

Turning to `N#Cc1ccccc1NC(=O)C(=O)NCC(c1ccc2c(c1)OCO2)N1CCOCC1` (stereo not drawn), the survival was inactive: 71%.

`Cc1ccc(-n2c(=O)c3oc4ccccc4c3n(CC(=O)Nc3ccc(F)c(Cl)c3)c2=O)cc1C`: the survival was inactive: 65%.

`COc1ccc(CN(C(=O)CN2C(=O)COc3ccccc32)C2CCCC2)c(OC)c1`: the survival was inactive: 69%.

On to `COc1ccccc1NC(=O)Cn1nnc(C(=O)Nc2ccccc2Br)c1N`, for which the survival was inactive: 89%.

As for `CCc1cccc(C)c1NC(=O)Cn1cc2c(n1)CCCCC2`, the survival is inactive: 90%.

As to `O=C(Nc1ccccc1)C1C2C=CC3(O2)C1C(=O)N(C1CCCC1)C3C(=O)NC1CCCCC1` (stereo not drawn), the survival was inactive: 59%.

Take `CC(=O)N1CCN(c2csc3ccc(Br)cc3c2=O)CC1`: the survival was inactive: 94%.

For the compound `CCC(C)NC(=O)CSc1nc(-c2ccc(F)cc2)cc(C(F)(F)F)n1` (stereo not drawn), the survival was inactive: 86%.

Regarding `COC(=O)c1ccccc1NC(=O)c1cnc2sc(N3CCOCC3)nn2c1=O`, the survival was inactive: 125%.

Regarding `O=C(CN1C(=O)COc2ccc(S(=O)(=O)N3CCCCCC3)cc21)NCCc1ccccc1`, the survival is inactive: 85%.

As to `Cc1ccc(NC(=O)N2CCN(C)c3ncccc32)cc1C`, the survival is inactive: 90%.

As to `COC(=O)c1ccccc1NC(=O)N1CCC(n2c(C)nc3cccnc32)CC1`, the survival was inactive: 115%.

As for `COc1cc(OC)c(N(C)C(=O)Cn2ncc3c(=O)oc4ccccc4c32)cc1Cl`, the survival was inactive: 91%.

Consider `Cc1ccc(CN2C(=O)N(c3ccccc3)C(=O)C2CC(=O)Nc2ccccc2)cc1` (stereo not drawn), for which the survival was inactive: 73%.

On to `COc1ccc2cc(CNc3ccc(C)cc3)c(=O)n(CC(=O)Nc3cccc(C(F)(F)F)c3)c2c1`, for which the survival is inactive: 81%.

With `CCOC(=O)CSc1nc2c(sc3cccc(F)c32)c(=O)n1Cc1ccc(OC)cc1`, the survival was inactive: 87%.
